Laboratory results taken from PMC9997487 (Biochemistry, 2023).

Molecular target: T1, Human DJ-1, wild type (human, UniProt Q99497 1-189, N-terminal Ser instead of Met)
T1 sequence: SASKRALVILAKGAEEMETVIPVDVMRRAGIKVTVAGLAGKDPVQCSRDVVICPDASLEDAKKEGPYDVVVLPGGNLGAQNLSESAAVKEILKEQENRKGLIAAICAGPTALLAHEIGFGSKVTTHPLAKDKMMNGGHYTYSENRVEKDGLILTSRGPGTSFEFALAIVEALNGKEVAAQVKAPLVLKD
Test: NMR titration

B1: Tau deletion mutant A2_P251del L376_L441del (Δ4R construct) (domain or fragment)
chain: not shown
modifications: 15N-labelled
Does B1 bind?
Result: binds
